Data published in the supplement of paper PMC3334620.
Over roughly 33,000 sequences, “E-score (-0.5 to 0.5)” has its median near -0.043; the highest 2% begin near 0.37. The list shows a part of the results.

Target: T1, Upc2 (UniProt Q12151)
T1 sequence: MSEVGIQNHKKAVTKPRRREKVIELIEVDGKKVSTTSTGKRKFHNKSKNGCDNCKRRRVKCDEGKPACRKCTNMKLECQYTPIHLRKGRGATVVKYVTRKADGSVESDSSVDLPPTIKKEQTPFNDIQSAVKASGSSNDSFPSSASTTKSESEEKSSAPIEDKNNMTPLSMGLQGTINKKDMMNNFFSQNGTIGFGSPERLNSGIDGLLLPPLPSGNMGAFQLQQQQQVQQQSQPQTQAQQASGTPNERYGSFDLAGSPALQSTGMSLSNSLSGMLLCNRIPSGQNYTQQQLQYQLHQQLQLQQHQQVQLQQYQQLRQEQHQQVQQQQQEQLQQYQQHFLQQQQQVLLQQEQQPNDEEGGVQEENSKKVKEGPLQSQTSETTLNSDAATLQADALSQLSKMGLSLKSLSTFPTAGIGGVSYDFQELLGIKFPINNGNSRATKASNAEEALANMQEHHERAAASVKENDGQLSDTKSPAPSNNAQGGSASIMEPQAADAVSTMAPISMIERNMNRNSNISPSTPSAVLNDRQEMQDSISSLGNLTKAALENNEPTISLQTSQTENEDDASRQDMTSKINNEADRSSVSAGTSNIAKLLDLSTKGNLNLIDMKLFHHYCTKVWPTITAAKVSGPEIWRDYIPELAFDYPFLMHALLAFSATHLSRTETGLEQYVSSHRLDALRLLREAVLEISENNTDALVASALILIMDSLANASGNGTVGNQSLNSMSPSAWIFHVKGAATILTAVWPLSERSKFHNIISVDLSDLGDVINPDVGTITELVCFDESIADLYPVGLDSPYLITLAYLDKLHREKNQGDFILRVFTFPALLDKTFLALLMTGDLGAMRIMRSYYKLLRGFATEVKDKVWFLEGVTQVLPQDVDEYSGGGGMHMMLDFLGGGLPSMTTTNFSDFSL
Assay: PBM E-score (8-mer binding enrichment) (E-score (-0.5 to 0.5)); higher = stronger / more preferred TF binding; most listed sequences are background and not binding sites
Conditions: protein concentration: 200 nM; construct: GST-full length
Protocol: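 Universal 'all 10-mer' protein binding microarrays (Agilent AMADID 015681) probed with GST-tagged S. cerevisiae TFs (full-length or DBD) made by in vitro transcription/translation (PURExpress), about 100-200 nM. Bound TF was detected with fluorescent anti-GST. Each ungapped 8-mer (which stands for itself and its reverse complement) is scored by the PBM enrichment score (E-score), a modified Wilcoxon-Mann-Whitney statistic from -0.5 to +0.5, computed with the Universal PBM Analysis Suite. Scale: above 0.35 generally sequence-specific binding.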

Sequence	PBM E-score
CAACTCAA	-0.0496
CTGAGGCA	-0.14
CTTAAGAC	-0.122
CCGCGTAA	0.165
ATGCGCTA	-0.00733
TAGTCAAA	0.0497
CATTGAGC	-0.271
CGATCTTA	0.189
ACGGTCCT	-0.138
CGAAGAGC	0.045
TTACGGAA	0.258
GTTAGTCA	0.0718
CACGCAAG	-0.156
ACTGCACC	-0.109
CGGGGACA	-0.103
ATGATGGG	-0.237
AGTGCCGG	-0.18
AACCGTGT	0.0637
ACGAGACG	0.366
GTTTGCCA	0.0485
AAACCCAT	0.0435
CACTAAGC	0.00304

Sequence	PBM E-score
AGCTTGAT	-0.129
ATAGCAAG	-0.168
GCGTCAAC	-0.106
AATGGACT	-0.108
CTGACTGA	-0.127
CGATCTCC	-0.0987
TTTAGAAA	0.133
CGGTTTAC	0.26
AGTCCTGA	-0.291
GCTCTATA	-0.0323
AGAACAAA	0.103
CGCGCGAG	0.00271
CAGCTAGC	-0.247
AAAGTGGG	0.0771
AATTATAT	0.175
CGCATGTC	0.0261
GATACATA	0.0496
CACGAGAG	0.0635
AATGGGAT	-0.124
GACCTGAA	-0.0798
CTAATCTC	0.0838
TCAGCTAA	0.0522

Sequence	PBM E-score
ACACCAGA	-0.00331
AAACGTTA	0.225
CCAAGGGC	-0.208
CGGAACCG	0.119
CGTAACCA	0.223
CCTTCCCC	-0.131
CAGCGCCA	-0.136
CAATTATC	0.107
GTAGCGAA	0.223
ATTCGCCG	0.131
CGCGTAAG	0.205
CGACACCA	0.2
CCGCTCCC	-0.0101
AGACTCAC	-0.252
ATAAGTAT	0.182
CTTCGTTA	0.345
CAGGTTAG	-0.191
ATATCTAG	-0.0547
AGGGTTTA	-0.113
TCTTTAAA	0.0359
ATTGAGGG	-0.334
CTCCCACC	-0.0368

Sequence	PBM E-score
CGTCAGGC	-0.112
GAGGCCGA	0.0482
GCGTACGA	0.448
TAATAGGA	-0.0422
CGTCTAGA	0.121
ACTTTATG	-0.0577
GATGCCAA	-0.095
CGTGCTCA	-0.0493
CCACGACG	-0.174
CGGCCGCC	-0.0226
AATTGTGC	0.131
CCTATCGA	-0.208
CCATTGTC	-0.158
AAGTGCGG	-0.161
ATTGGGGG	-0.274
AGCCGTAG	-0.0316
ACATGTTC	0.0169
GCCAGTAA	-0.00828
ACAATAGA	-0.101
CGCACTCA	0.118
